{
  "source": "paper PMC12746902",
  "about": "“Pathogenic Gαo Mutants Drive Dominant GPCR Coupling in GNAO1 Encephalopathies” (The FASEB Journal, 2025)",
  "molecular_target": "T1, M2 muscarinic acetylcholine receptor with C-terminal split-YFP fragment YN (M2R-YN) (UniProt P08172 1-466)",
  "T1 sequence (looked up)": "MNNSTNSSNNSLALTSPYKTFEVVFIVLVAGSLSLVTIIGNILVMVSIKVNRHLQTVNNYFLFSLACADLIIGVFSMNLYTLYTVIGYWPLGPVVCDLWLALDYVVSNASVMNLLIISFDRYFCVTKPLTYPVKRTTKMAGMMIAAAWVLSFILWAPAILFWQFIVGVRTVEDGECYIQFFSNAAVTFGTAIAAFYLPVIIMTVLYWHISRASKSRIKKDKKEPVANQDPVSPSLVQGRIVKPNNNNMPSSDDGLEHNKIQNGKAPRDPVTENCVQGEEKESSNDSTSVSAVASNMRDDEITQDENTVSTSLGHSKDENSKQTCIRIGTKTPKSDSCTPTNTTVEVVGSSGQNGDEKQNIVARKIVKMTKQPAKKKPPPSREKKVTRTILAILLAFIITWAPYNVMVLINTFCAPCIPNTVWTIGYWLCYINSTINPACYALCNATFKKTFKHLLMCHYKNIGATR",
  "assay": "cell-based or functional assay",
  "data": [
    {"binder": "Gαo C215Y with internal split-YFP fragment YC at Gly92 (natural protein) not shown", "values": [
      {"measurement": "reduction of ACh-mediated phosphorylation (pT307/pS309 relative to total receptor) of immunoprecipitated GFP-M2R with co-expressed UNTAGGED Gαo C215Y, 100 μM ACh for 5 min", "value": 20, "unit": "%"}
    ]}
  ]
}
